Results: PubChem BioAssay AID1768 (National Center for Advancing Translational Sciences (NCATS), 2009)
The whole screen tested about 270,000 compounds, of which about 620 (0.23%) were called active. Inconclusive results, whose numbers are uncertain, are shown with a selection of clear calls. The call rests on the fitted dose curve; in most records, active means well fitted inhibition curve with a large enough effect in the polarisation, with a control signal flat (not every such curve was filed as active); inconclusive means small, poorly fitted or top-dose-only effect, or effect the other way, or a change in a side signal; inactive means no such curve, though single readings can be large or run the other way; the % refers to the polarisation. Potencies of inconclusive entries are doubtful fits and often do not repeat. A note “side channel” means that the fit belongs to a control or component signal, not to the main read-out.

The compounds below were run against Menin (Homo sapiens) (UniProt O00255) (assay: qHTS Assay for Inhibitors Targeting the Menin-MLL Interaction in MLL Related Leukemias: Competition With Texas Red Labeled MLL-derived Mutant Peptide). Settings: fluorescence polarization; FP activity change, negative = inhibition: at 61.6 µM (top of the series).
UniProt O00255, sequence (O00255 whole entry, looked up): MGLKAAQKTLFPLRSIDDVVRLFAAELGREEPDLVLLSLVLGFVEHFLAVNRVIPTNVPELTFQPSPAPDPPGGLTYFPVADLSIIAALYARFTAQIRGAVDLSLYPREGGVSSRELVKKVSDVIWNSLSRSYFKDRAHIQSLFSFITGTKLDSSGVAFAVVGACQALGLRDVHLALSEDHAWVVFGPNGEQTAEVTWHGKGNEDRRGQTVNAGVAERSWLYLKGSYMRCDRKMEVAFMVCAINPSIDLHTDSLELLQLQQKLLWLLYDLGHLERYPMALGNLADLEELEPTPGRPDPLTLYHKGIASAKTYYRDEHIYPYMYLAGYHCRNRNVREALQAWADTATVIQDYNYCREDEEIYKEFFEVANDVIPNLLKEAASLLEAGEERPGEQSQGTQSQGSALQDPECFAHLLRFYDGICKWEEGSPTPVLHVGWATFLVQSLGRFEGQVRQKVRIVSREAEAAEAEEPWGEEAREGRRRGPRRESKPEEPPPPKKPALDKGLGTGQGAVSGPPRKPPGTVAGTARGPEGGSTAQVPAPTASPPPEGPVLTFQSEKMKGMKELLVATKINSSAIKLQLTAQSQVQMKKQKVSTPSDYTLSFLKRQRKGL
Potency means the concentration at half of the fitted maximal effect; tags describe the fitted curve by direction and shape or compound fluorescence and quenching.
Wherever FP activity change, negative = inhibition is given: % of control where 0% means no effect.

Potency, inconclusive:
CCN(CC)c1ccc(C(=O)OCc2c(C)noc2C)cc1 12.6 µM [fluorescent, side channel, partial curve], O=C1OCCN1C(=O)[C@H]1[C@H](c2ccccc2)C(c2ccc(F)cc2)=NN1c1ccccc1 2 µM [quencher, side channel, partial curve], COc1ccc(CC2(CO)CCN(Cc3cnn(-c4ccc(F)cc4)c3)CC2)cc1 17.8 µM [fluorescent, side channel, partial curve], COc1ccc(CNC(=O)C(C)NCc2ccccc2Cl)cc1 (stereo not given) 39.8 µM [inhibitor, single point], COc1ccc(CC(=O)Nc2ccc(/C(C)=N\NC(=O)c3ccc(Br)o3)cc2)cc1 39.8 µM [fluorescent, single point], COc1ccccc1NS(=O)(=O)c1cc(NC(=O)c2cccs2)ccc1N1CCCC1 0.891 µM [quencher, side channel, full curve], CCCCn1c(SCC(=O)c2ccc(OC)cc2OC)nc2cc(S(N)(=O)=O)ccc21 17.8 µM [quencher, side channel, single point], C/C(=N\NC(=S)Nc1ccc(F)cc1)C1CC1 28.2 µM [quencher, side channel, single point], CN1CCN(c2ncnc3ccc(-c4cccc(NS(C)(=O)=O)c4)cc23)CC1 31.6 µM [inhibitor, partial curve], Cc1cc(C)cc(C(=O)NC(CC(N)=O)c2ccc(N3CCN(c4ccccc4)CC3)c([N+](=O)[O-])c2)c1 (stereo not given) 28.2 µM [quencher, side channel, single point], O=c1c(C/C=C/c2ccccc2)c(O)ccn1CCc1c[nH]c2ccccc12 39.8 µM [inhibitor, single point], CCc1ccc(OCC(O)CN2CCN(c3ccc(OC)cc3)CC2)cc1 (stereo not given) 8.91 µM [inhibitor, full curve], CCCn1c(O)c(C=Nc2ccccc2)sc1=S 31.6 µM [quencher, side channel, partial curve], O=C(Nc1ccccc1C(=O)Nc1ccc2c(c1)OCO2)c1ccco1 25.1 µM [quencher, side channel, partial curve]

FP activity change, negative = inhibition, inactive:
CC(C)(C)N1C(=O)[C@H]2[C@H]3[C@H](O)[C@H](O)C/C(=N/OC[C@@H](O)COCc4ccco4)[C@H]3CC[C@@H]2C1=O -4.62% [at 11.7 µM]
